This is one part of the list. Interaction screen of human proteins with wild-type SARS-CoV-2 proteins by split-DHFR complementation in yeast, 1 µg/mL methotrexate. Value = fitness of the pair (three or more lineages) minus that of the viral protein without a human partner, on a scale set by negative (0) and fused positive (1) controls, mean of up to three cultures; higher = more likely to interact. Active = false discovery rate below 0.05 (one-sided t-test) in at least one culture. Nearly all pairs are not hits, and differences among them are mostly noise (correlation between cultures about 0.3); most hits were seen in one culture only. Human sequences are the Swiss-Prot entries looked up by gene name; the clone may be another isoform. NSP2 values were corrected by the authors for a growth advantage. Listed are human proteins with a hit and a random twelfth of the others.
B1: PCDHA4, Q9UN74 (protein)
chain: MEFSWGSGQESRRLLLLLLLLAAWEAGNGQLHYSVSEEAKHGTFVGRIAQDLGLELAELVPRLFRVASKGRGGLLEVNLQNGILFVNSRIDREELCRRSAECSIHLEVIVDRPLQVFHVDVEVRDINDNPPVFPATQKNLSIAESRPLDSRFPLEGASDADIGENALLTYRLSPNEYFSLEKPPDDELVKGLGLILRKSLDREEAPEIFLVLTATDGGKPELTGTVQLLITVLDANDNAPAFDRTIYKVRLLENVPNGTLVIKLNASDLDEGLNGDIVYSFSNDISPNVKSKFHIDPITGQIIVKGYIDFEESKSYEIIVEGIDKGQLPLSGHCRVIVEVEDNNDNVPDLEFKSLSLPIREDAPLGTVIALISVSDKDMGVNGLVTCSLTSHVPFKLVSTFKNYYSLVLDSALDRESVSAYELVVTARDGGSPSLWATASVSVEVADVNDNAPAFAQPEYTVFVKENNPPGCHIFTVSAWDADAQENALVSYSLVERRVGERALSSYVSVHAESGKVYALQPLDHEELELLQFQVTARDAGVPPLGSNVTLQVFVLDENDNAPALLAPRAGGTGGAVSELVPWSVGVGHVVAKVRAVDADSGYNAWLSYELQPGTGGARIPFRVGLYTGEISTTRALDETDAPRHRLLVLVKDHGEPALTATATVLVSLVESGQAPKASSRALVGAVGPDAALVDVNVYLIIAICAVSSLLVLTLLLYTALRCSALPTEGACAPGKPTLVCSSAVGSWSYSQQRRPRVCSGEGPPKTDLMAFSPSLPDSRDREDQLQTTEESFAKPRQPNPDWRYSASLRAGMHSSVHLEEAGILRAGPGGPDQQWPTVSSATPEPEAGEVSPPVGAGVNSNSWTFKYGPGNPKQSGPGELPDKFIIPGSPAIISIRQEPTNSQIDKSDFITFGKKEETKKKKKKKKGNKTQEKKEKGNSTTDNSDQ
B2: RGR, P47804 (protein)
chain: MAETSALPTGFGELEVLAVGMVLLVEALSGLSLNTLTIFSFCKTPELRTPCHLLVLSLALADSGISLNALVAATSSLLRRWPYGSDGCQAHGFQGFVTALASICSSAAIAWGRYHHYCTRSQLAWNSAVSLVLFVWLSSAFWAALPLLGWGHYDYEPLGTCCTLDYSKGDRNFTSFLFTMSFFNFAMPLFITITSYSLMEQKLGKSGHLQVNTTLPARTLLLGWGPYAILYLYAVIADVTSISPKLQMVPALIAKMVPTINAINYALGNEMVCRGIWQCLSPQKREKDRTK
B3: ZCCHC14, Q8WYQ9 (protein)
chain: MASNHPAFSFHQKQVLRQELTQIQSSLNGGGGHGGKGAPGPGGALPTCPACHKITPRTEAPVSSVSNSLENALHTSAHSTEESLPKRPLGKHSKVSVEKIDLKGLSHTKNDRNVECSFEVLWSDSSITSVTKSSSEVTEFISKLCQLYPEENLEKLIPCLAGPDAFYVERNHVDLDSGLRYLASLPSHVLKNDHVRRFLSTSSPPQQLQSPSPGNPSLSKVGTVMGVSGRPVCGVAGIPSSQSGAQHHGQHPAGSAAPLPHCSHAGSAGSALAYRTQMDTSPAILMPSSLQTPQTQEQNGILDWLRKLRLHKYYPVFKQLSMEKFLSLTEEDLNKFESLTMGAKKKLKTQLELEKEKSERRCLNPSAPPLVTSSGVARVPPTSHVGPVQSGRGSHAAELRVEVEQPHHQLPREGSSSEYSSSSSSPMGVQAREESSDSAEENDRRVEIHLESSDKEKPVMLLNHFTSSSARPTAQVLPVQNEASSNPSGHHPLPPQMLSAASHITPIRMLNSVHKPERGSADMKLLSSSVHSLLSLEERNKGSGPRSSMKVDKSFGSAMMDVLPASAPHQPVQVLSGLSESSSMSPTVSFGPRTKVVHASTLDRVLKTAQQPALVVETSTAATGTPSTVLHAARPPIKLLLSSSVPADSAISGQTSCPNNVQISVPPAIINPRTALYTANTKVAFSAMSSMPVGPLQGGFCANSNTASPSSHPSTSFANMATLPSCPAPSSSPALSSVPESSFYSSSGGGGSTGNIPASNPNHHHHHHHQQPPAPPQPAPPPPGCIVCTSCGCSGSCGSSGLTVSYANYFQHPFSGPSVFTFPFLPFSPMCSSGYVSAQQYGGGSTFPVVHAPYSSSGTPDPVLSGQSTFAVPPMQNFMAGTAGVYQTQGLVGSSNGSSHKKSGNLSCYNCGATGHRAQDCKQPSMDFNRPGTFRLKYAPPAESLDSTD
B4: ATP1B2, P14415 (protein)
chain: MVIQKEKKSCGQVVEEWKEFVWNPRTHQFMGRTGTSWAFILLFYLVFYGFLTAMFTLTMWVMLQTVSDHTPKYQDRLATPGLMIRPKTENLDVIVNVSDTESWDQHVQKLNKFLEPYNDSIQAQKNDVCRPGRYYEQPDNGVLNYPKRACQFNRTQLGNCSGIGDSTHYGYSTGQPCVFIKMNRVINFYAGANQSMNVTCAGKRDEDAENLGNFVMFPANGNIDLMYFPYYGKKFHVNYTQPLVAVKFLNVTPNVEVNVECRINAANIATDDERDKFAGRVAFKLRINKT

Each binder was assayed against SARS-CoV-2 NSP1 (assay: yeast fitness gain over the viral ORF with no human partner (scaled fitness); higher = more likely to interact).
Method: (§1)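 Split mouse DHFR complementation in pooled diploid yeast: human ORFeome clones carry one fragment and viral ORFs the other; barcoded lineages compete in 1 µg/mL methotrexate and fitness is read by barcode sequencing in up to three cultures.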
For B1, the yeast fitness gain was inactive: -0.0967. With B2 the yeast fitness gain was inactive: -0.0177. In the case of B3, the yeast fitness gain is reported as inactive: 0.114. For B4, the yeast fitness gain was inactive: 0.0388.

Each binder was assayed against SARS-CoV-2 NSP10 in the same assay as above.
Method: as §1
B1 was tested, and the yeast fitness gain was inactive: 0.0245. B2 was tested, and the yeast fitness gain was inactive: -0.0185. For B4, the yeast fitness gain was inactive: 0.0208.

The binders below were run against SARS-CoV-2 NSP12 in the same assay as above.
Method: as §1
In the case of B1, the yeast fitness gain is reported as inactive: 0.0853. In the case of B2, the yeast fitness gain is reported as inactive: -0.0446. In the case of B4, the yeast fitness gain is reported as inactive: 0.15.

Each binder was assayed against SARS-CoV-2 NSP13 in the same assay as above.
Method: as §1
B1 was tested, and the yeast fitness gain was inactive: -0.00713. With B2 the yeast fitness gain was inactive: -0.0896. In the case of B4, the yeast fitness gain is reported as inactive: 0.0508.

The binders below were run against SARS-CoV-2 NSP2 in the same assay as above.
Method: as §1
With B1 the yeast fitness gain was inactive: -0.157. B2 was tested, and the yeast fitness gain was inactive: -0.171. B4 was tested, and the yeast fitness gain was inactive: -0.108.

What follows are binders tested against SARS-CoV-2 NSP5 in the same assay as above.
Method: as §1
For B1, the yeast fitness gain was inactive: 0.0282. In the case of B2, the yeast fitness gain is reported as inactive: -0.0833.

Each binder was assayed against SARS-CoV-2 NSP7 in the same assay as above.
Method: as §1
In the case of B1, the yeast fitness gain is reported as inactive: 0.0949. For B2, the yeast fitness gain was inactive: 0.0348. For B3, the yeast fitness gain was inactive: -0.0806.

Each binder was assayed against SARS-CoV-2 NSP9 in the same assay as above.
Method: as §1
In the case of B1, the yeast fitness gain is reported as inactive: 0.0142. B2 was tested, and the yeast fitness gain was inactive: 0.0261.

Each binder was assayed against SARS-CoV-2 ORF10 in the same assay as above.
Method: as §1
For B1, the yeast fitness gain was inactive: -0.0146. B2 was tested, and the yeast fitness gain was inactive: 0.0309. B4 was tested, and the yeast fitness gain was inactive: 0.0494.

Each binder was assayed against SARS-CoV-2 ORF3B in the same assay as above.
Method: as §1
In the case of B1, the yeast fitness gain is reported as inactive: 0.0111. B2 was tested, and the yeast fitness gain was inactive: -0.0257. B4 was tested, and the yeast fitness gain was inactive: -0.168.

These binders were tested against SARS-CoV-2 ORF6 in the same assay as above.
Method: as §1
B1 was tested, and the yeast fitness gain was inactive: 0.0129. In the case of B2, the yeast fitness gain is reported as inactive: -0.0629. For B4, the yeast fitness gain was inactive: -0.115.

What follows are binders tested against SARS-CoV-2 ORF7B in the same assay as above.
Method: as §1
For B1, the yeast fitness gain was inactive: 0.0859. In the case of B2, the yeast fitness gain is reported as inactive: -0.06. In the case of B4, the yeast fitness gain is reported as inactive: -0.0715.

The binders below were run against SARS-CoV-2 ORF8 in the same assay as above.
Method: as §1
B1 was tested, and the yeast fitness gain was inactive: 0.0172. With B2 the yeast fitness gain was inactive: 0.11. For B4, the yeast fitness gain was inactive: -0.0828.

What follows are binders tested against SARS-CoV-2 ORF9B in the same assay as above.
Method: as §1
B1 was tested, and the yeast fitness gain was inactive: -0.0759. B2 was tested, and the yeast fitness gain was inactive: -0.0546. B4 was tested, and the yeast fitness gain was inactive: 0.0806.

The binders below were run against SARS-CoV-2 ORF9Bwu (the 73-codon ORF) in the same assay as above.
Method: as §1
For B2, the yeast fitness gain was inactive: -0.014. For B3, the yeast fitness gain was inactive: 0.0753.

Each binder was assayed against SARS-CoV-2 S in the same assay as above.
Method: as §1
With B2 the yeast fitness gain was inactive: -0.0637.

The binders below were run against SARS-CoV-2 N in the same assay as above.
Method: as §1
B3 was tested, and the yeast fitness gain was inactive: -0.0468.

The binders below were run against SARS-CoV-2 NSP16 in the same assay as above.
Method: as §1
B3 was tested, and the yeast fitness gain was inactive: 0.0311.

The binders below were run against SARS-CoV-2 NSP8 in the same assay as above.
Method: as §1
With B3 the yeast fitness gain was inactive: -0.0477. With B4 the yeast fitness gain was inactive: 0.0247.

These binders were tested against SARS-CoV-2 NSP4 in the same assay as above.
Method: as §1
For B4, the yeast fitness gain was inactive: -0.392.

The binders below were run against SARS-CoV-2 NSP6 in the same assay as above.
Method: as §1
With B4 the yeast fitness gain was inactive: 0.0052.

Source: the supplement of paper PMC11741623
